Assay results as given in the supplement of paper PMC10338343.
± gives the standard deviation. The entries are a selection whose mix differs from that of the whole data set.

tested on: MIWI (PIWIL1) piRISC loaded with L1MC piRNA (30 nt); test: pre-steady-state target cleavage rate (min^-1); MIWI and MILI are mouse PIWI proteins and EfPiwi is from a freshwater sponge; tags in brackets are library labels; higher = faster piRNA-guided slicing of the target; conditions: guide: L1MC piRNA 5'p-UAACUAAAUACUAUGCAAGCUGUAGGUCCU; auxiliary factor: 500 nM mouse GTSF1
Experimental: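 Cleave-'n-Seq: a library of target RNAs (target site embedded in constant flanks, ACAGCATTCCGCGTTAGTGATATCCG... 5' flank; DNA-blocked outside the site) at 0.1 nM was incubated with 1 nM active mouse MILI or MIWI piRISC (synthetic 5'-monophosphorylated piRNA guide) with or without 500 nM mouse GTSF1 at 33 °C for 1 min to 16 h. Uncleaved targets were sequenced and normalised to non-target controls, and the pooled three trials were fitted to a burst-and-steady-state model to give the pre-steady-state cleavage rate (min^-1; k3 is constrained to at most 1e-4). Sequence is the target site only; target names encode pairing extent (gX:gY) and contiguous / 1-mismatch / 2-mismatch / bulge geometry. Fits with R² ≤ 0 are excluded.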

| Sequence | pre-steady-state target cleavage rate |
| --- | --- |
| AGGACCUACAGACUUGCAUAGUAUUUAGUUA | 1.1 ± 0.079 |
| UCGACCUACAGAUUGCAUAGUAUUUAGUUA | 1.13 ± 0.059 |
| UCCUGCUACAGCUUGCAUAGUAUUUAGUCA | 0.404 ± 0.05 |
| UCGACCUAGUGCUUGCAUAGUAUUUACAAA | 0.168 ± 0.025 |
| UCCACCUACUCCUUGCAUAGUAUUUAGAAA | 0.281 ± 0.043 |
| UCCUGGAACAGCAUGCAUAGUAUUUAGAAA | 0.398 ± 0.054 |
| UCCUGGUACAGCAUGCAUAGUAUUAAGUUA | 0.473 ± 0.054 |
| UGGACCUACAGCUUGCAUAGAAUUAAGUUA | 0.262 ± 0.033 |
| UCCUGGAUCAGCUUGCUUAGUAUUAAGUUA | 0.178 ± 0.018 |
| UCCACCUACAGGCUUGCAUAGUAUUUAGUUA | 0.685 ± 0.059 |
| UCCUCCUACUGCUUGCAUAGUAUUUAGAAA | 0.186 ± 0.031 |
| AGGUCCUACAGCUUCCAUAGUAUUUAGUUA | 0.237 ± 0.063 |
| UCCUGGAUGAGCUUGCAUAGUUAUUUAGUUA | 0.0115 ± 0.0042 |
| UCCUGGUACAGCAUGCAUAGUAUUUACAAA | 0.291 ± 0.057 |
| UCCUCCUACAGCUUGCAUAGUAUUUACUUA | 0.383 ± 0.042 |
| UCCUCCUAGACCUUGCAUAGUAUUUAGUUA | 0.851 ± 0.042 |
| UCCACUUACAGCUUGCAUAGUAUUUAGUUA | 1.17 ± 0.034 |
| UCCUGCAACAGCUUGCAUAGUAUAUAGUUA | 0.844 ± 0.063 |
| UCCUGCUAGAGCUUGCAUAGUAAUUAGUUA | 0.521 ± 0.043 |
| UCCUGGAUGAGCUUGCAAUCUAUUUAGUUA | 0.00395 ± 0.0025 |
| UGGACCUAGUGCUUGCAUAGUAUUUACAAA | 0.0157 ± 0.0028 |

same assay, conditions: guide: L1MC piRNA 5'p-UAACUAAAUACUAUGCAAGCUGUAGGUCCU; auxiliary factor: none (no GTSF1)

| Sequence | pre-steady-state target cleavage rate |
| --- | --- |
| AGGACCUACAGACUUGCAUAGUAUUUAGUUA | 0.0719 ± 0.014 |
| UCGACCUACAGAUUGCAUAGUAUUUAGUUA | 0.0469 ± 0.0091 |
| UCCUGCUACAGCUUGCAUAGUAUUUAGUCA | 0.0157 ± 0.0035 |
| UCGACCUAGUGCUUGCAUAGUAUUUACAAA | 0.00328 ± 0.0015 |
| UCCACCUACUCCUUGCAUAGUAUUUAGAAA | 0.0046 ± 0.0018 |
| UCCUGGAACAGCAUGCAUAGUAUUUAGAAA | 0.00322 ± 0.0031 |
| UCCUGGUACAGCAUGCAUAGUAUUAAGUUA | 0.00723 ± 0.0037 |
| UGGACCUACAGCUUGCAUAGAAUUAAGUUA | 0.0103 ± 0.0035 |
| UCCUGGAUCAGCUUGCUUAGUAUUAAGUUA | 0.00894 ± 0.0036 |
| UCCACCUACAGGCUUGCAUAGUAUUUAGUUA | 0.0335 ± 0.0066 |
| UCCUCCUACUGCUUGCAUAGUAUUUAGAAA | 0.00501 ± 0.0016 |
| AGGUCCUACAGCUUCCAUAGUAUUUAGUUA | 0.0046 ± 0.0032 |
| UCCUGGAUGAGCUUGCAUAGUUAUUUAGUUA | 0.00555 ± 0.0031 |
| UCCUCCUACAGCUUGCAUAGUAUUUACUUA | 0.0348 ± 0.0074 |
| UCCUCCUAGACCUUGCAUAGUAUUUAGUUA | 0.0236 ± 0.0052 |
| UCCACUUACAGCUUGCAUAGUAUUUAGUUA | 0.0668 ± 0.0094 |
| UCCUGCAACAGCUUGCAUAGUAUAUAGUUA | 0.0237 ± 0.0057 |
| UCCUGCUAGAGCUUGCAUAGUAAUUAGUUA | 0.0215 ± 0.0048 |
| UGGACCUAGUGCUUGCAUAGUAUUUACAAA | 0.00317 ± 0.0027 |
